# Hit rate of the full screen: of about 310,000 compounds, about 2,200 (0.71%) showed an effect of 50% or more. The effect is printed as a negative number. The list shows a part of the results.
# Target: human ether-à-go-go-related gene (hERG) potassium channel (human, UniProt Q12809)
# Test: primary screen, population patch clamp on CHO cells stably expressing hERG
# Sequence of human ether-à-go-go-related gene (hERG) potassium channel (Q12809 whole entry, looked up): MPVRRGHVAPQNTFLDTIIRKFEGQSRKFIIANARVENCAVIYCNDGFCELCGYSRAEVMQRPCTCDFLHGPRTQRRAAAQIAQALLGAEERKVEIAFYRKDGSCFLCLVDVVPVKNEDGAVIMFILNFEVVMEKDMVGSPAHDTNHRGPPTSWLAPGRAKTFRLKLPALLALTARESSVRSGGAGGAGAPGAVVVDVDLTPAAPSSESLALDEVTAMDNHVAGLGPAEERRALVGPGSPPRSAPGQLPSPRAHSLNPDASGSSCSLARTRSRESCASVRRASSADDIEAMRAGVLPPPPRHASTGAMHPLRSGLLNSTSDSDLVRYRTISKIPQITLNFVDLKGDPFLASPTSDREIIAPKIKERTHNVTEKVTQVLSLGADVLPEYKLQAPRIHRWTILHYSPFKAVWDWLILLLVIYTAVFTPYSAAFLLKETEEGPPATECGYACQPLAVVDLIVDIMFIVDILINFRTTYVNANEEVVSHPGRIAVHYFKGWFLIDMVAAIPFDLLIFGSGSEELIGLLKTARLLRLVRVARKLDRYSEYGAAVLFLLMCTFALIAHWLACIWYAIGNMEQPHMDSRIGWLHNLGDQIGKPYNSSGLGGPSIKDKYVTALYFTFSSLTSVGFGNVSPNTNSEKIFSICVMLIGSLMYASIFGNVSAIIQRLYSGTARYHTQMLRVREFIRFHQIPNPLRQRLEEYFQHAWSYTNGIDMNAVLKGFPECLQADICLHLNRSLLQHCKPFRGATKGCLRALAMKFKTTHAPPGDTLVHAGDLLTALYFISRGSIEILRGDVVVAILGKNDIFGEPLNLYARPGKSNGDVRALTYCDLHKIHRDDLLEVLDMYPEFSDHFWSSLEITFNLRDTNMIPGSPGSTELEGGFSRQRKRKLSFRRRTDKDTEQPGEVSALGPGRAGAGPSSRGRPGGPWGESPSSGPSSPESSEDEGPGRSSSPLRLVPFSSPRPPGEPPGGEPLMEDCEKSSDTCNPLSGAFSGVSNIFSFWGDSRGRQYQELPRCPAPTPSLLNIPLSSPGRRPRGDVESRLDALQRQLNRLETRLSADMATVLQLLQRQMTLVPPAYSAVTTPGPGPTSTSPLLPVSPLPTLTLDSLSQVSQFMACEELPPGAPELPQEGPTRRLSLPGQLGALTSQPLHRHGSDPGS
row,SMILES,"hERG current change (%, negative = inhibition) at 1uM"
1,S=C1NCCc2ccc(Cl)cc2C1c1ccccc1Cl (stereo not drawn),13.6%
2,CCCN(CCO)C1CCN(CCc2ccccc2)CC1,9.96%
3,CC(=O)c1cc(F)c(N2CCN(C(=O)COc3ccccc3F)CC2)cc1C,2.93%
4,COc1ccc(NC(=S)NCC2CCN(c3ccc(OC)cc3)C2)cc1 (stereo not drawn),2.84%
5,CCn1c(Cn2nnc(-c3ccccc3)n2)nnc1SCc1ccc(Cl)c(Cl)c1,2.07%
6,CCOC(=O)C1CCN(S(=O)(=O)c2ccc(Cl)s2)CC1,12.4%
7,O=C(CCCC(=O)N(CC(=O)NC1CCCCC1)c1cccc(F)c1)Nc1ccccn1,0.626%
8,COc1ccc(C2C(C#N)=C(/N=C/N3CCOCC3)OC3=C2C(=O)CC(C)(C)C3)cc1OC (stereo not drawn),-0.831%
9,CC(C)(C)c1cc(C(=O)C[n+]2ccc(C(=O)NCCCO)cc2)cc(C(C)(C)C)c1O.[Br-],13.4%
10,Cc1ccc(OCCSCc2nnc(NC(=O)Nc3cccc(Cl)c3)s2)cc1,1.73%
11,Cc1ccc(NC(=O)Cc2ccc(Cl)c(Cl)c2)cc1S(=O)(=O)N(C)C,10.1%
12,COc1ccccc1CC(NC(C)=O)C(=O)NC1CCN(S(=O)(=O)c2ccc(NC(C)=O)cc2)CC1 (stereo not drawn),0.979%
13,Cc1cc2c3c(c1)C1(SCC(=O)N1c1ccc(F)cc1)C(=O)N3C(C)(C)CC2C (stereo not drawn),-3.01%
14,COc1ccccc1CC(=O)Nc1cc(S(=O)(=O)N2CCOCC2)ccc1N1CCOCC1,6.53%
15,O=C(N/N=C/c1ccc(Cl)cc1)Nc1ccccc1,2.21%
16,Cc1ccc(C)c(N2CCN(C(=O)c3ccc(NS(=O)(=O)c4c(C)noc4C)cc3)CC2)c1,9.8%
17,Cc1ccc2[nH]c(=O)c(CN(CC3CCCO3)C(=O)c3ccncc3)cc2c1 (stereo not drawn),10.8%
18,CCCOc1ccc(N2C(=O)C3C4C=CC(CC4)C3C2=O)cc1 (stereo not drawn),12.4%
19,COc1ccc(/C(O)=C2/C(=O)C(=O)N(CCN(C)C)C2c2ccccn2)cc1OC (stereo not drawn),15%
20,N#Cc1c(N)c(C(=O)c2ccccc2)n2ccccc12,13.4%
21,C[C@H](NC(=O)[C@@H]1Cc2ccccc2CN1C(=O)OC(C)(C)C)C(=O)NC1CCCCC1,13.1%
22,Nn1c(SCC(=O)NNC(=O)c2ccccc2)nnc1-c1ccccc1F,13.2%

row,SMILES,"hERG current change (%, negative = inhibition) at 1uM"
1,Cc1cccnc1N(C(=O)Nc1ccccc1)C1=NCC(C)(C)S1,0.866%
2,CC(C)OCCCNC(=O)c1cccs1,-3.78%
3,Cc1ccc(N(C(=O)Cc2c[nH]c3ccccc23)C(C(=O)NC2CCCCC2)c2ccco2)cc1 (stereo not drawn),-2.79%
4,O=C1CC(c2ccc(F)cc2)c2cc3c(cc2N1)CCC3 (stereo not drawn),-0.85%
5,Cc1ccc(S(=O)(=O)NCC(=O)OCC(=O)Nc2cccc(S(=O)(=O)NC3=NCCCCC3)c2)cc1C,6.3%
6,Cc1cc(/C(=N/O)C(C)(C)NO)ccc1Cl,13.1%
7,CCOc1ccc(OCCC(=O)OCC(=O)Nc2cc(OCC)c(N3CCOCC3)cc2OCC)cc1,12.9%
8,CC(C)(C)c1ccc(NC(=O)C2=CN3CCS(=O)(=O)N=C3C=C2)cc1,-1.02%
9,Cn1c(SCC(=O)NC2CCCCC2)nnc1-c1ccccc1O,-20.1%
10,COc1ccc(C(CNC(=O)c2ccc(NS(=O)(=O)c3ccc(F)c(C)c3)cc2)N2CCOCC2)cc1 (stereo not drawn),-1.98%
11,Cc1ccn(CC(=O)N2N=C(C(F)F)CC2(O)C(F)F)n1 (stereo not drawn),18.1%
12,COc1ccc(/C=N/NC(=O)c2ccoc2C)cc1CN1CCN(c2ccc(F)cc2)CC1,-19.3%
13,Cc1cc(NC(=O)C2CCN(S(=O)(=O)c3c(C)noc3C)CC2)ccc1Br,19.5%
14,O=C(Nc1ccc2nsnc2c1)c1cccs1,14.5%
15,COc1ccc(-c2c(C)nn(Cc3ccccc3)c2N)cc1,-1.25%
16,CCc1ccc(NC(=O)c2cnc(SC)nc2C)cc1,11.4%
17,CC1=CC(C)(C)N2C(=O)C3(C(C#N)=C(N)Oc4cc(O)ccc43)c3c(C)c(C)cc1c32 (stereo not drawn),-9.88%
18,O=C(CC(O)(c1ccccc1)C(F)(F)C(F)F)c1cccs1 (stereo not drawn),7.27%
19,CCC(=Nc1ccc2c(c1)CCC2)c1c(O)n(C)c(=O)n(C)c1=O,3.33%
20,CCCCN(C(=O)c1ccc2ccccc2c1)c1c(N)n(CCCC)c(=O)[nH]c1=O,2.9%
21,COC(=O)Cn1cc(C(=O)C(C)(C)C)c2ccccc21,9.17%
22,O=C(CSc1nnc(CNC(=O)c2ccc(F)cc2)o1)NCc1ccc(F)cc1,7.03%

row,SMILES,"hERG current change (%, negative = inhibition) at 1uM"
1,CCc1nc2ccc(C(=O)NCc3ccccc3)cc2nc1CC,7.34%
2,CC/C(=N/Nc1ccccc1)c1cnnc(SC)n1,5.25%
3,C/C(=N/NC(=O)c1cccs1)c1ccco1,14.6%
4,CCOC(=O)c1c(NC(=O)CCCC(=O)O)sc2c1CCC2,4.7%
5,O=C1CC(C(=O)NCc2ccccc2)C2(CCCC2)O1 (stereo not drawn),5.35%
6,CNC(C(=O)c1ccccc1)C(OC)c1ccc(C)cc1.[O-][Cl+3]([O-])([O-])O (stereo not drawn),10.9%
7,Cc1ccc(NC(=O)C[n+]2ccn(C3=C([O-])c4ccccc4C3=O)c2)cc1,6.99%
8,COc1ccc(S(=O)(=O)NNC(=O)c2ccccc2-n2cccc2)cc1,15.1%
9,CCOC(=O)c1c(S(=O)(=O)NCC(=O)Nc2ccc(F)cc2F)c(C)n(C)c1C,11.7%
10,Cc1cccc(OCCCC(=O)Nc2ccccc2C(F)(F)F)c1,6.37%
11,CCOc1cc(NC(=S)NCc2ccccc2)c(OCC)cc1NC(=O)C(C)C,11.1%
12,O=C(O)c1ccc(/C=N/Nc2ccc(Cl)nn2)cc1,15.5%
13,O=C(Nc1ccc(C(=O)NCc2ccccc2)cc1)C1=CSCCO1,16.4%
14,CCN1CCC2(CC1)C(C#N)=C(N)Oc1c2sc2nc(C)cc(C)c12,-5.82%
15,COc1cccc(OCCNC(=O)CSc2ccc(C(F)(F)F)cc2[N+](=O)[O-])c1,9.88%
16,FC(F)Oc1ccc(NC(=S)Nn2cnnc2)cc1,8.77%
17,COC(=O)c1cc(C(=O)OCC(=O)NCc2cccs2)cc([N+](=O)[O-])c1,-7.81%
18,C=CCN(CC=C)C(=O)c1cc2ccccc2c(=O)o1,5%
19,Cn1nc(C(F)(F)F)c(-c2cccc(C(F)(F)F)c2)c1NC(=O)Nc1ccc(F)cc1,18%
20,O=C(NN=C1CCCC1)c1ccc(Br)cc1,12.4%
21,COc1ccc2[nH]c(C(=O)Nc3ncc(C)cc3Br)cc2c1,11.1%
22,CC(=O)Nc1ccc(/C=N/OCC(=O)Nc2ccc(C)cc2)cc1,6.31%

row,SMILES,"hERG current change (%, negative = inhibition) at 1uM"
1,COc1ccc(CN2CCCCCC2)cc1,1.26%
2,CCCC(=O)N(CCN1CCOCC1)c1nc2c(OCC)cccc2s1.Cl,10.4%
3,Cc1nn2c(-c3ccc(F)cc3)ccnc2c1Br,8.89%
4,Cc1ccc(-n2nc(C)c3c2OC(N)=C(C#N)C3c2ccco2)cc1 (stereo not drawn),15.9%
5,CSc1nnc(-c2cccc(NC(=S)NN)c2)o1,13.4%
6,CC(=O)Nc1ccc(C(=O)NNC(=O)c2cc([N+](=O)[O-])cc([N+](=O)[O-])c2)cc1,12.6%
7,COc1cccc(/C=C(/C(=O)OCC(=O)NC2CCCCCCC2)c2ccccc2)c1,8.5%
8,COc1ccc(CCN(C)CC(O)c2ccccc2)cc1OC.O=C(O)C(=O)O (stereo not drawn),1.76%
9,Cc1cc(NC(=O)Nc2ccc(Cl)cc2)n(C(C)(C)C)n1,11.2%
10,CCOc1ccc(S(=O)(=O)N2CCCC(C(=O)Nc3cc(C)cc(C)c3)C2)cc1 (stereo not drawn),14.7%
11,O=C(C1CCN(c2nnc(-n3cccc3)s2)CC1)N1CCN(Cc2ccc3c(c2)OCO3)CC1,-48.4%
12,O=C(N/N=C/c1cc(Cl)cc([N+](=O)[O-])c1O)C(O)(c1ccccc1)c1ccccc1,-62.4%
13,Cc1cccc(C(C)C)c1-n1nnnc1-c1ccccc1,2.15%
14,COc1ccccc1N1CCN(C2CCCC(C)C2)CC1 (stereo not drawn),15.8%
15,CCOP(=O)(OCC)C(NCc1ccccc1)c1ccc(Br)cc1 (stereo not drawn),7.25%
16,CCOC(=O)[C@H]1[C@H]2COc3ccc(Br)cc3[C@@H]2N2C(=O)c3cc(OC)c(OC)cc3NC(=O)[C@@]12C,7.08%
17,CCOC(=O)Cn1c(=O)oc2cc(S(=O)(=O)N3CCC(N4CCCCC4)CC3)ccc21,12.2%
18,CC(=O)N1CCN(Cc2nc3cc([N+](=O)[O-])ccc3n2C)CC1,14%
19,C=CCNc1nc(C(=O)OCC(=O)c2ccc(C)c([N+](=O)[O-])c2)cs1,8.54%
20,Cc1nnc(-c2cnn(C)c2N)n1CCCN(C)C,11.5%
21,CC1=NN(c2nc(-c3ccc(C)cc3)cs2)C(=O)C1N=Nc1ccc2ccccc2c1 (stereo not drawn),-12.8%
